# According to US20210130346A1, “Bromodomain Inhibitors” (AbbVie Inc., priority 2017, published 2021):
# Target: BRD4 (BDII_E352-M457) (Homo sapiens, UniProt O60885)
# Assay: TR-FRET bromodomain binding assay, BRD4 second bromodomain (BDII)
# Conditions: mean Ki; 4 nM His tagged BRD4 (BDII_E352-M457), 30 nM Alexa647 probe; Ki calculated from IC50, probe Kd and probe concentration
# Protocol: A time-resolved fluorescence resonance energy transfer (TR-FRET) assay was used to determine the affinities of compounds of the Examples listed in Table 1 for each bromodomain of BRD4. […] An Alexa647-labeled BET-inhibitor was used as the fluorescent probe in the assay.
# Compound dilution series were prepared in DMSO via an approximately 3-fold serial dilution. Compound dilutions were added directly into white, low-volume assay plates (Perkin Elmer Proxiplate 384 Plus# 6008280) using a Labcyte Echo in conjunction with Labcyte Access and Thermo Multidrop CombinL robotics. Compounds were then suspended in eight microliters (μL) of assay buffer (20 mM Sodium Phosphate, pH 6.0, 50 mM NaCl, 1 mM Ethylenediaminetetraacetic acid disodium salt dihydrate, 0.01% Triton X-100, 1 mM DL-Dithiothreitol) containing His-tagged bromodomain, Europium-conjugated anti-His antibody (Invitrogen PV5596) and Alexa-647-conjugated probe.
# After a one-hour equilibration at room temperature, TR-FRET ratios were determined using an Envision multilabel plate reader (Ex 340, Em 495/520).
# TR-FRET data were normalized to the means of 24 no-compound controls (“high”) and 8 controls containing 1 μM un-labeled probe (“low”). Percent inhibition was plotted as a function of compound concentration and the data were fit with the 4 parameter logistic equation to obtain IC50s. Inhibition constants (Ki) were calculated from the IC50s, probe Kd and probe concentration.
row,Ki [nM],Structure (SMILES)
1,9.2,"CCNC(=O)c1cc2c([C@@H]3C[C@@]34C(=O)N(C)c3ccccc34)cn(C)c(=O)c2[nH]1 (racemic) [Example 1, rac-N-ethyl-6-methyl-4-[(1R,2S)-1′-methyl-2′-oxo-1′,2′-dihydrospiro[cyclopropane-1,3′-indol]-2-yl]-7-oxo-6,7-dihydro-1H-pyrrolo[2,3-c]pyridine-2-carboxamide]"
2,4.77,"CN1C(=O)[C@@]2(C[C@H]2c2cn(C)c(=O)c3[nH]c(C(=O)NC4CC4)cc23)c2ccccc21 (racemic) [Example 2, rac-N-cyclopropyl-6-methyl-4-[(1R,2S)-1′-methyl-2′-oxo-1′,2′-dihydrospiro[cyclopropane-1,3′-indol]-2-yl]-7-oxo-6,7-dihydro-1H-pyrrolo[2,3-c]pyridine-2-carboxamide]"
3,22,"CN1C(=O)[C@@]2(C[C@H]2c2cn(C)c(=O)c3[nH]c(C(=O)NC4CC(F)(F)C4)cc23)c2ccccc21 (racemic) [Example 5, rac-N-(3,3-difluorocyclobutyl)-6-methyl-4-[(1R,2S)-1′-methyl-2′-oxo-1′,2′-dihydrospiro[cyclopropane-1,3′-indol]-2-yl]-7-oxo-6,7-dihydro-1H-pyrrolo[2,3-c]pyridine-2-carboxamide]"
4,5.43,"CN1C(=O)[C@@]2(C[C@H]2c2cn(C)c(=O)c3[nH]c(C(=O)Nc4ccccc4)cc23)c2ccccc21 (racemic) [Example 8, rac-6-methyl-4-[(1R,2S)-1′-methyl-2′-oxo-1′,2′-dihydrospiro[cyclopropane-1,3′-indol]-2-yl]-7-oxo-N-phenyl-6,7-dihydro-1H-pyrrolo[2,3-c]pyridine-2-carboxamide]"
5,5.82,"COc1ccc(NC(=O)c2cc3c([C@@H]4C[C@@]45C(=O)N(C)c4ccccc45)cn(C)c(=O)c3[nH]2)cc1 (racemic) [Example 9, rac-N-(4-methoxyphenyl)-6-methyl-4-[(1R,2S)-1′-methyl-2′-oxo-1′,2′-dihydrospiro[cyclopropane-1,3′-indol]-2-yl]-7-oxo-6,7-dihydro-1H-pyrrolo[2,3-c]pyridine-2-carboxamide]"
6,3.5,"CN1C(=O)[C@@]2(C[C@H]2c2cn(C)c(=O)c3[nH]c(C(=O)Nc4cccc(CO)c4)cc23)c2ccccc21 (racemic) [Example 10, rac-N-[3-(hydroxymethyl)phenyl]-6-methyl-4-[(1R,2S)-1′-methyl-2′-oxo-1′,2′-dihydrospiro[cyclopropane-1,3′-indol]-2-yl]-7-oxo-6,7-dihydro-1H-pyrrolo[2,3-c]pyridine-2-carboxamide]"
7,31.7,"CN1C(=O)[C@@]2(C[C@H]2c2cn(C)c(=O)c3[nH]c(C(=O)NC4CC4)cc23)c2ccc(F)cc21 (racemic) [Example 11, rac-N-cyclopropyl-4-[(1R,2S)-6′-fluoro-1′-methyl-2′-oxo-1′,2′-dihydrospiro[cyclopropane-1,3′-indol]-2-yl]-6-methyl-7-oxo-6,7-dihydro-1H-pyrrolo[2,3-c]pyridine-2-carboxamide]"
8,3.65,"CN1C(=O)[C@@]2(C[C@H]2c2cn(C)c(=O)c3[nH]c(C(=O)NC4CC4)cc23)c2ccc(Cl)cc21 (racemic) [Example 12, rac-4-[(1R,2S)-6′-chloro-1′-methyl-2′-oxo-1′,2′-dihydrospiro[cyclopropane-1,3′-indol]-2-yl]-N-cyclopropyl-6-methyl-7-oxo-6,7-dihydro-1H-pyrrolo[2,3-c]pyridine-2-carboxamide]"
9,5.59,"Cc1ccc2c(c1)N(C)C(=O)[C@@]21C[C@H]1c1cn(C)c(=O)c2[nH]c(C(=O)NC3CC3)cc12 (racemic) [Example 13, rac-N-cyclopropyl-4-[(1R,2S)-1′,6′-dimethyl-2′-oxo-1′,2′-dihydrospiro[cyclopropane-1,3′-indol]-2-yl]-6-methyl-7-oxo-6,7-dihydro-1H-pyrrolo[2,3-c]pyridine-2-carboxamide]"
10,10.2,"COc1ccc2c(c1)N(C)C(=O)[C@@]21C[C@H]1c1cn(C)c(=O)c2[nH]c(C(=O)NC3CC3)cc12 (racemic) [Example 14, rac-N-cyclopropyl-4-[(1R,2S)-6′-methoxy-1′-methyl-2′-oxo-1′,2′-dihydrospiro[cyclopropane-1,3′-indol]-2-yl]-6-methyl-7-oxo-6,7-dihydro-1H-pyrrolo[2,3-c]pyridine-2-carboxamide]"
11,7.08,"CN1C(=O)[C@@]2(C[C@H]2c2cn(C)c(=O)c3[nH]c(C(=O)NC4CC4)cc23)c2ccc(OC(F)(F)F)cc21 (racemic) [Example 15, rac-N-cyclopropyl-6-methyl-4-[(1R,2S)-1′-methyl-2′-oxo-6′-(trifluoromethoxy)-1′,2′-dihydrospiro[cyclopropane-1,3′-indol]-2-yl]-7-oxo-6,7-dihydro-1H-pyrrolo[2,3-c]pyridine-2-carboxamide]"
12,6.69,"CN1C(=O)[C@@]2(C[C@H]2c2cn(C)c(=O)c3[nH]c(C(=O)NC4CC4)cc23)c2cc(F)ccc21 (racemic) [Example 16, rac-N-cyclopropyl-4-[(1R,2S)-5′-fluoro-1′-methyl-2′-oxo-1′,2′-dihydrospiro[cyclopropane-1,3′-indol]-2-yl]-6-methyl-7-oxo-6,7-dihydro-1H-pyrrolo[2,3-c]pyridine-2-carboxamide]"
13,15.3,"Cn1cc([C@@H]2C[C@@]23C(=O)Nc2ccccc23)c2cc(C(=O)NC3CC3)[nH]c2c1=O (racemic) [Example 19, rac-N-cyclopropyl-6-methyl-7-oxo-4-[(1R,2S)-2′-oxo-1′,2′-dihydrospiro[cyclopropane-1,3′-indol]-2-yl]-6,7-dihydro-1H-pyrrolo[2,3-c]pyridine-2-carboxamide]"
14,3.53,"CCN1C(=O)[C@@]2(C[C@H]2c2cn(C)c(=O)c3[nH]c(C(=O)NC4CC4)cc23)c2ccccc21 (racemic) [Example 22, rac-N-cyclopropyl-4-[(1R,2S)-1′-ethyl-2′-oxo-1′,2′-dihydrospiro[cyclopropane-1,3′-indol]-2-yl]-6-methyl-7-oxo-6,7-dihydro-1H-pyrrolo[2,3-c]pyridine-2-carboxamide]"
15,8.65,"Cn1cc(C2CC23C(=O)N(CC(F)(F)F)c2ccccc23)c2cc(C(=O)NC3CC3)[nH]c2c1=O (racemic) [Example 23, rac-N-cyclopropyl-6-methyl-7-oxo-4-[(1R,2S)-2′-oxo-′-(2,2,2-trifluoroethyl)-1′,2′-dihydrospiro[cyclopropane-1,3′-indol]-2-yl]-6,7-dihydro-1H-pyrrolo[2,3-c]pyridine-2-carboxamide]"
16,5.81,"Cn1cc([C@@H]2C[C@@]23C(=O)N(C2CC2)c2ccccc23)c2cc(C(=O)NC3CC3)[nH]c2c1=O (racemic) [Example 26, rac-N-cyclopropyl-4-[(1R,2S)-1′-cyclopropyl-2′-oxo-1′,2′-dihydrospiro[cyclopropane-1,3′-indol]-2-yl]-6-methyl-7-oxo-6,7-dihydro-1H-pyrrolo[2,3-c]pyridine-2-carboxamide]"
17,261,"COCCN1C(=O)[C@@]2(C[C@H]2c2cn(C)c(=O)c3[nH]c(C(=O)NC4CC4)cc23)c2ccccc21 (racemic) [Example 27, rac-N-cyclopropyl-4-[(1R,2S)-1′-(2-methoxyethyl)-2′-oxo-1′,2′-dihydrospiro[cyclopropane-1,3′-indol]-2-yl]-6-methyl-7-oxo-6,7-dihydro-1H-pyrrolo[2,3-c]pyridine-2-carboxamide]"
18,15,"Cn1cc([C@@H]2C[C@@]23C(=O)N(Cc2ccc(N)cc2)c2ccccc23)c2cc(C(=O)NC3CC3)[nH]c2c1=O (racemic) [Example 28, rac-4-{(1R,2S)-1′-[(4-aminophenyl)methyl]-2′oxo-1′,2′-dihydrospiro[cyclopropane-1,3′-indol]-2-yl}-N-cyclopropyl-6-methyl-7-oxo-6,7-dihydro-1H-pyrrolo [2,3-c]pyridine-2-carboxamide]"
19,13.7,"CN1C(=O)[C@@]2(C[C@H]2c2cn(C)c(=O)c3[nH]c(C(=O)NC4CC4)cc23)c2cccc(Br)c21 (racemic) [Example 29, rac-4-[(1R,2S)-7′-bromo-1′-methyl-2′-oxo-1′,2′-dihydrospiro[cyclopropane-1,3′-indol]-2-yl]-N-cyclopropyl-6-methyl-7-oxo-6,7-dihydro-1H-pyrrolo[2,3-c]pyridine-2-carboxamide]"
20,174,"CN1C(=O)[C@@]2(C[C@H]2c2cn(C)c(=O)c3[nH]ccc23)c2ccccc21 (racemic) [Example 30, rac-(1R,2S)-1′-methyl-2-(6-methyl-7-oxo-6,7-dihydro-1H-pyrrolo[2,3-c]pyridin-4-yl)spiro[cyclopropane-1,3′-indol]-2′(1H)-one]"
21,40.8,"CN1C(=O)[C@@]2(C[C@H]2c2cn(C)c(=O)c3[nH]c(C4CC4)cc23)c2ccccc21 (racemic) [Example 31, rac-(1R,2S)-2-(2-cyclopropyl-6-methyl-7-oxo-6,7-dihydro-1H-pyrrolo[2,3-c]pyridin-4-yl)-1′-methylspiro[cyclopropane-1,3′-indol]-2′(1H)-one]"
22,91.2,"CN1C(=O)[C@@]2(C[C@H]2c2cn(C)c(=O)c3[nH]c(C4CN(C(=O)OC(C)(C)C)C4)cc23)c2ccccc21 (racemic) [Example 32, rac-tert-butyl 3-{6-methyl-4-[(1R,2S)-1′-methyl-2′oxo-1′,2′-dihydrospiro[cyclopropane-1,3′-indol]-2-yl]-7-oxo-6,7-dihydro-1H-pyrrolo [2,3-c]pyridin-2-yl}azetidine-1-carboxylate]"
